{
  "source": "PubChem BioAssay AID1745845",
  "about": "(National Center for Advancing Translational Sciences (NCATS), 2022)",
  "note": "Out of some 360,000 compounds screened, about 2,600 (0.72%) were called active. The shares of active, inactive and inconclusive entries below differ from those in the screen. Calls come from the whole dose curve; as a rule, active = well fitted inhibition curve with a large enough effect; inconclusive = small, poorly fitted or top-dose-only effect; inactive = no such curve, though single readings can be large or run the other way. Potencies beside an inconclusive call are fits to weak or partial responses and may not hold up. % is set by controls: 0 for no effect and ±100 for the full control effect; potency is the fitted concentration of half-maximal effect; tags give direction and shape of the fitted curve.",
  "data": [
    {"test": "Primary qHTS for Inhibitors of ATXN expression; note: nearly all actives have a fitted effect of over 55% in size", "details": "HEK-293 ATXN2-luciferase reporter, luminescence, 24 h; activity change, negative = inhibition: at 57 µM (top of the series)", "how_it_was_run": "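qHTS (up to 57 uM final) was run with 24 h compound exposure of reporter cells at 37 °C. Each well was multiplexed: SteadyGlo luminescence measured ATXN2-luciferase expression after a fluorogenic Gly-Phe-AFC viability readout (25 uM final).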", "values": [
      {"molecule": "Cc1cccc(NC(=S)Nc2ccc(Cl)c(Cl)c2)c1", "Potency": "inconclusive: 31.6 µM [inhibitor, partial curve, poor fit]"},
      {"molecule": "Cc1ccc(C(=O)Nc2cccc(C(=O)N/N=C/c3ccccc3F)c2)cc1", "Potency": "inconclusive: 12.6 µM [inhibitor, partial curve, poor fit]"},
      {"molecule": "O=C(O)c1ccccc1C(=O)Nc1ccc(Oc2cccc3ccccc23)cc1", "Potency": "active: 1.58 µM"},
      {"molecule": "O=C(Nc1nc2ccc(F)cc2s1)C1=COCCO1", "Potency": "inconclusive: 14.1 µM [inhibitor, single point]"},
      {"molecule": "CNC(=O)c1cc(Nc2nnc(-c3ccc(O)cc3)c3ccccc23)ccc1OC", "Potency": "inactive"},
      {"molecule": "Clc1ccc(N2CCN(c3ncnc4c3oc3ccccc34)CC2)cc1", "Potency": "inconclusive: 20 µM [inhibitor, partial curve, poor fit]"},
      {"molecule": "O=C1CC(NS(=O)(=O)c2ccc3ccccc3c2)CN1c1ccccc1", "note": "(configuration not stated)", "activity change, negative = inhibition": "inactive: -31.2%"},
      {"molecule": "COc1ccccc1Oc1nc(-c2cccnc2)nc2ccccc12", "Potency": "inconclusive: 39.8 µM [inhibitor, single point]"},
      {"molecule": "COC(=O)c1cc2ccccc2c(-c2c(O)ccc3ccccc23)c1O", "Potency": "inconclusive: 35.5 µM [inhibitor, single point]"},
      {"molecule": "CCCCNc1c(-c2cccc(-c3cc(C(C)=O)cs3)c2)nc2ccc(C)cn12", "Potency": "inconclusive: 25.1 µM [inhibitor, single point]"},
      {"molecule": "CCOc1ccc2[nH]c(=O)c(CN(CCN3CCCC3)C(=S)Nc3ccccc3OC)cc2c1", "activity change, negative = inhibition": "inactive: -19.2%"},
      {"molecule": "O=C(O)c1ccc(-n2c(-c3ccc(Br)cc3)n[nH]c2=S)cc1", "activity change, negative = inhibition": "inactive: 19.6%"},
      {"molecule": "CCc1nc(N2CCN(C(=O)c3ccco3)CC2)c2oc3ccccc3c2n1", "Potency": "inconclusive: 39.8 µM [inhibitor, single point]"},
      {"molecule": "CCOc1ccc(OCc2cccc(C(=O)N3CCCC3)c2)cc1", "Potency": "active: 7.94 µM"},
      {"molecule": "COc1ccc(-c2cc(C)nc3c(-c4ccc(OC)c(OC)c4)c(C)nn23)cc1", "Potency": "inconclusive: 15.8 µM [inhibitor, partial curve]"},
      {"molecule": "N#Cc1ccc(Nc2nc(-c3ccccc3)c(C(=O)c3ccccc3)s2)cc1", "Potency": "inconclusive: 39.8 µM [inhibitor, single point]"},
      {"molecule": "CCN(CC)c1ccc(N=Cc2ccc([N+](=O)[O-])o2)cc1", "activity change, negative = inhibition": "inactive: 0.362%"},
      {"molecule": "CCOc1cccc(CNc2ccc(O)cc2)c1OCc1ccc(Cl)cc1Cl", "Potency": "inconclusive: 39.8 µM [inhibitor, partial curve, poor fit]"},
      {"molecule": "COC1=CC(=O)C(OC)=C(OC)C1=O", "Potency": "inconclusive: 35.5 µM [inhibitor, single point]"},
      {"molecule": "Cc1nn(-c2ccccn2)c2c1C(=O)C(Br)CC2", "note": "(configuration not stated)", "Potency": "inconclusive: 11.9 µM [inhibitor, partial curve, poor fit]"},
      {"molecule": "C=CCn1c(SCC(=O)c2ccc(OC)cc2)nnc1-c1cc2cccc(OC)c2o1", "activity change, negative = inhibition": "inactive: -12.2%"},
      {"molecule": "COc1ccc2cc(C(N)=O)/c(=N\\NC(=O)c3ccccc3)oc2c1", "Potency": "inconclusive: 8.91 µM [inhibitor, partial curve, poor fit]"},
      {"molecule": "Cc1cccc(N2CCN(C(=O)c3c(C)oc4ncnc(N5CCCCC5)c34)CC2)c1C", "Potency": "inconclusive: 20 µM [inhibitor, partial curve, poor fit]"},
      {"molecule": "CC(NC(=O)CN(C)CC(=O)Nc1ccc(Cl)cc1)c1ccc(F)cc1", "note": "(configuration not stated)", "Potency": "inconclusive: 35.5 µM [inhibitor, partial curve, poor fit]"},
      {"molecule": "CC(C)n1c(CN(C)c2ccccc2)nc2ccccc21", "activity change, negative = inhibition": "inactive: -13.9%"},
      {"molecule": "CCCCC(=O)N(CCOC)c1nnc(-c2ccccc2C)s1", "Potency": "inconclusive: 39.8 µM [inhibitor, single point]"},
      {"molecule": "C=C[C@@H]1c2c(F)cccc2N(S(=O)(=O)c2ccc(C)cc2)[C@H](c2ccc(OC(C)=O)cc2)C1(C#N)C#N", "Potency": "inconclusive: 35.5 µM [inhibitor, single point]"},
      {"molecule": "COC(=O)CS(=O)(=O)c1nnc([C@H](Cc2ccccc2)NC(=O)OC(C)(C)C)o1", "Potency": "inconclusive: 39.8 µM [inhibitor, single point]"},
      {"molecule": "O=C(NCCOc1ccccc1)c1cccc2c1C(=O)c1ccc(Cl)cc1S2(=O)=O", "Potency": "inconclusive: 35.5 µM [inhibitor, single point]"},
      {"molecule": "CC(=O)c1ccc(-c2cccs2)s1", "activity change, negative = inhibition": "inactive: -0.64% [at 11.3 µM]"},
      {"molecule": "CCOC(=O)C1=C(O)c2ccccc2C(=O)/C1=C\\c1ccc(CC)cc1", "Potency": "inconclusive: 39.8 µM [inhibitor, single point]"},
      {"molecule": "COC(=O)c1c(Oc2ccc(C(C)=O)cc2)nnc(-c2ccccc2)c1-c1ccccc1", "Potency": "inconclusive: 39.8 µM [inhibitor, single point]"},
      {"molecule": "Oc1ccc(N=Cc2ccc(O)c(O)c2)cc1", "Potency": "inconclusive: 39.8 µM [inhibitor, single point]"},
      {"molecule": "COC(=O)[C@]12CCCCC=C1N(Cc1cccc3ccccc13)C(=O)[C@H](CC(=O)NCc1ccccc1)C2", "Potency": "inconclusive: 39.8 µM [inhibitor, single point]"},
      {"molecule": "Oc1ccc(C[C@H]2CNC(=S)N2CC2CCCN2C[C@H](Cc2ccccc2)N2C[C@H](Cc3ccc(O)cc3)N(CCc3ccccc3)C2=S)cc1", "note": "(some centres not stated)", "Potency": "inconclusive: 11.2 µM [inhibitor, partial curve, poor fit]"},
      {"molecule": "CCc1cc2cc(C)ccc2nc1SCC(=O)N1CCN(C(=O)c2ccco2)CC1", "activity change, negative = inhibition": "inactive: -2.66%"},
      {"molecule": "Cn1c(SCC(=O)Nc2cc(Cl)cc(Cl)c2)nnc1-c1ccc2nonc2c1", "Potency": "active: 31.6 µM"},
      {"molecule": "Cc1c(C#N)c(NC(=O)CCl)n(Cc2ccccc2)c1C", "Potency": "active: 10.6 µM"},
      {"molecule": "Cc1ccc(Sc2ccc(NC(=O)CCl)cc2)cc1C", "Potency": "active: 31.6 µM"},
      {"molecule": "c1ccc(-c2csc3ncnc(NCC4COc5ccccc5O4)c23)cc1", "note": "(configuration not stated)", "Potency": "inconclusive: 3.16 µM [inhibitor, partial curve]"},
      {"molecule": "COc1ccc(-n2nc3c(N4CCCC(C(=O)NCc5cccc(F)c5)C4)nnc(C)c3c2C)cc1", "note": "(configuration not stated)", "Potency": "inconclusive: 28.2 µM [inhibitor, partial curve, poor fit]"},
      {"molecule": "COc1cc2ncc(C(=O)c3ccccc3)c(N3CCN(Cc4ccccc4)CC3)c2cc1OC", "activity change, negative = inhibition": "inactive: 0%"}
    ]}
  ]
}
